# Results: publication PMC12820563, “FoxP3 forms a head-to-head dimer in vivo and stabilizes its multimerization on adjacent microsatellites”
# The list shows a part of the results.
# Molecular target: T1, MBP-FoxP1dN (Mus musculus, UniProt P58462 326-579)
# T1 sequence: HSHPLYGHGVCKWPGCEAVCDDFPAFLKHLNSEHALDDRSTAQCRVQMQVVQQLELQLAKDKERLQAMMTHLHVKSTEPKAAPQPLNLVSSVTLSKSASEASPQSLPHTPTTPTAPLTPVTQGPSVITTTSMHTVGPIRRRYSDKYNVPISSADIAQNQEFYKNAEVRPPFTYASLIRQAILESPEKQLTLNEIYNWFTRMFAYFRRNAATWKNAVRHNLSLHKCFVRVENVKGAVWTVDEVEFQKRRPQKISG
# Assay: PD-seq (MBP pull-down with sequencing); 20 mM Tris-HCl pH 7.5, 100 mM NaCl, 1.5 mM MgCl2, 0.4 uM protein, 0.1 uM dsDNA library, 30 min, room temperature, amylose pull-down; high values mean tight binding
# Conditions: protein: recombinant; tags: His6-MBP; chain copies: 2; dsDNA, one strand shown
# How it was run: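 Protein and DNA were mixed at 0.4 µM and 0.1 µM and held for 30 min at room temperature in Tris pH 7.5 buffer with NaCl and MgCl2; the protein was a His6-MBP-tagged, N-terminally truncated mouse FoxP3 or FoxP1 fragment from E. coli, and the DNA a Klenow-filled double-stranded degenerate library. Amylose resin captured the complexes, which were washed three times. Binding is read as reads-per-million enrichment of pull-down versus input after Illumina sequencing, with replicates pooled.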
row,Sequence,binding signal
1,GATGATTGTTCTCCCAGCTGATGAATTTAGAGACTCGAGTAAACAAATTTTCCTAATCTTTCTGTTCAAGCGCCATCTAC,0.958 RPM ratio (pull-down/input)
2,GATGATTGTTCTCCCAGCTGATGAATTGTCACGGTCGAGTAAACAAATTTTCCTAATCTTTCTGTTCAAGCGCCATCTAC,0.924 RPM ratio (pull-down/input)
3,GATGATTGTTCTCCCAGCTGATGAATTTTAATATTCGAGTAAACAAATTTTCCTAATCTTTCTGTTCAAGCGCCATCTAC,1.14 RPM ratio (pull-down/input)
4,GATGATTGTTCTCCCAGCTGATGAATTAAGGTCTTCGAGTAAACAAATTTTCCTAATCTTTCTGTTCAAGCGCCATCTAC,0.841 RPM ratio (pull-down/input)
5,GATGATTGTTCTCCCAGCTGATGAATTGTTACAGTCGAGTAAACAAATTTTCCTAATCTTTCTGTTCAAGCGCCATCTAC,1.24 RPM ratio (pull-down/input)
6,GATGATTGTTCTCCCAGCTGATGAATTCACGGCTTCGAGTAAACAAATTTTCCTAATCTTTCTGTTCAAGCGCCATCTAC,0.796 RPM ratio (pull-down/input)
7,GATGATTGTTCTCCCAGCTGATGAATTGTCATCATCGAGTAAACAAATTTTCCTAATCTTTCTGTTCAAGCGCCATCTAC,1.34 RPM ratio (pull-down/input)
8,GATGATTGTTCTCCCAGCTGATGAATTGGGTCATTCGAGTAAACAAATTTTCCTAATCTTTCTGTTCAAGCGCCATCTAC,0.917 RPM ratio (pull-down/input)
9,GATGATTGTTCTCCCAGCTGATGAATTGACATGATCGAGTAAACAAATTTTCCTAATCTTTCTGTTCAAGCGCCATCTAC,1.33 RPM ratio (pull-down/input)
10,GATGATTGTTCTCCCAGCTGATGAATTCTCGTGCTCGAGTAAACAAATTTTCCTAATCTTTCTGTTCAAGCGCCATCTAC,0.83 RPM ratio (pull-down/input)
11,GATGATTGTTCTCCCAGCTGATGAATTCATAAACTCGAGTAAACAAATTTTCCTAATCTTTCTGTTCAAGCGCCATCTAC,1.07 RPM ratio (pull-down/input)
12,GATGATTGTTCTCCCAGCTGATGAATTGTTCAGCTCGAGTAAACAAATTTTCCTAATCTTTCTGTTCAAGCGCCATCTAC,0.958 RPM ratio (pull-down/input)
13,GATGATTGTTCTCCCAGCTGATGAATTATGGAAATCGAGTAAACAAATTTTCCTAATCTTTCTGTTCAAGCGCCATCTAC,1.08 RPM ratio (pull-down/input)
14,GATGATTGTTCTCCCAGCTGATGAATTGGCCTCCTCGAGTAAACAAATTTTCCTAATCTTTCTGTTCAAGCGCCATCTAC,0.815 RPM ratio (pull-down/input)
15,GATGATTGTTCTCCCAGCTGATGAATTTCAAATATCGAGTAAACAAATTTTCCTAATCTTTCTGTTCAAGCGCCATCTAC,0.914 RPM ratio (pull-down/input)
16,GATGATTGTTCTCCCAGCTGATGAATTCTGGAGTTCGAGTAAACAAATTTTCCTAATCTTTCTGTTCAAGCGCCATCTAC,0.784 RPM ratio (pull-down/input)
17,GATGATTGTTCTCCCAGCTGATGAATTAATAAACTCGAGTAAACAAATTTTCCTAATCTTTCTGTTCAAGCGCCATCTAC,1.33 RPM ratio (pull-down/input)
18,GATGATTGTTCTCCCAGCTGATGAATTGGTACGTTCGAGTAAACAAATTTTCCTAATCTTTCTGTTCAAGCGCCATCTAC,0.983 RPM ratio (pull-down/input)
19,GATGATTGTTCTCCCAGCTGATGAATTCAGCTACTCGAGTAAACAAATTTTCCTAATCTTTCTGTTCAAGCGCCATCTAC,0.827 RPM ratio (pull-down/input)
20,GATGATTGTTCTCCCAGCTGATGAATTCTGGAACTCGAGTAAACAAATTTTCCTAATCTTTCTGTTCAAGCGCCATCTAC,0.76 RPM ratio (pull-down/input)
21,GATGATTGTTCTCCCAGCTGATGAATTTTTATTTTCGAGTAAACAAATTTTCCTAATCTTTCTGTTCAAGCGCCATCTAC,2.75 RPM ratio (pull-down/input)

row,Sequence,binding signal
1,GATGATTGTTCTCCCAGCTGATGAATTCTTGACATCGAGTAAACAAATTTTCCTAATCTTTCTGTTCAAGCGCCATCTAC,0.978 RPM ratio (pull-down/input)
2,GATGATTGTTCTCCCAGCTGATGAATTAGAGATGTCGAGTAAACAAATTTTCCTAATCTTTCTGTTCAAGCGCCATCTAC,1 RPM ratio (pull-down/input)
3,GATGATTGTTCTCCCAGCTGATGAATTTGGAGGCTCGAGTAAACAAATTTTCCTAATCTTTCTGTTCAAGCGCCATCTAC,0.932 RPM ratio (pull-down/input)
4,GATGATTGTTCTCCCAGCTGATGAATTGGAGGGCTCGAGTAAACAAATTTTCCTAATCTTTCTGTTCAAGCGCCATCTAC,0.812 RPM ratio (pull-down/input)
5,GATGATTGTTCTCCCAGCTGATGAATTAAGCGAATCGAGTAAACAAATTTTCCTAATCTTTCTGTTCAAGCGCCATCTAC,1.04 RPM ratio (pull-down/input)
6,GATGATTGTTCTCCCAGCTGATGAATTGAAGCTATCGAGTAAACAAATTTTCCTAATCTTTCTGTTCAAGCGCCATCTAC,0.906 RPM ratio (pull-down/input)
7,GATGATTGTTCTCCCAGCTGATGAATTGTCCAGATCGAGTAAACAAATTTTCCTAATCTTTCTGTTCAAGCGCCATCTAC,0.878 RPM ratio (pull-down/input)
8,GATGATTGTTCTCCCAGCTGATGAATTCATACGATCGAGTAAACAAATTTTCCTAATCTTTCTGTTCAAGCGCCATCTAC,0.856 RPM ratio (pull-down/input)
9,GATGATTGTTCTCCCAGCTGATGAATTAGCAGTATCGAGTAAACAAATTTTCCTAATCTTTCTGTTCAAGCGCCATCTAC,1.04 RPM ratio (pull-down/input)
10,GATGATTGTTCTCCCAGCTGATGAATTGCGTACGTCGAGTAAACAAATTTTCCTAATCTTTCTGTTCAAGCGCCATCTAC,1.1 RPM ratio (pull-down/input)
11,GATGATTGTTCTCCCAGCTGATGAATTGGTCCGATCGAGTAAACAAATTTTCCTAATCTTTCTGTTCAAGCGCCATCTAC,0.88 RPM ratio (pull-down/input)
12,GATGATTGTTCTCCCAGCTGATGAATTGTATGTCTCGAGTAAACAAATTTTCCTAATCTTTCTGTTCAAGCGCCATCTAC,1.19 RPM ratio (pull-down/input)
13,GATGATTGTTCTCCCAGCTGATGAATTATCTGACTCGAGTAAACAAATTTTCCTAATCTTTCTGTTCAAGCGCCATCTAC,0.913 RPM ratio (pull-down/input)
14,GATGATTGTTCTCCCAGCTGATGAATTAAAGTCATCGAGTAAACAAATTTTCCTAATCTTTCTGTTCAAGCGCCATCTAC,1.09 RPM ratio (pull-down/input)
15,GATGATTGTTCTCCCAGCTGATGAATTTCGACTATCGAGTAAACAAATTTTCCTAATCTTTCTGTTCAAGCGCCATCTAC,0.919 RPM ratio (pull-down/input)
16,GATGATTGTTCTCCCAGCTGATGAATTGTTATGCTCGAGTAAACAAATTTTCCTAATCTTTCTGTTCAAGCGCCATCTAC,1.55 RPM ratio (pull-down/input)
17,GATGATTGTTCTCCCAGCTGATGAATTAACCCTGTCGAGTAAACAAATTTTCCTAATCTTTCTGTTCAAGCGCCATCTAC,0.839 RPM ratio (pull-down/input)
18,GATGATTGTTCTCCCAGCTGATGAATTAACGGTTTCGAGTAAACAAATTTTCCTAATCTTTCTGTTCAAGCGCCATCTAC,0.872 RPM ratio (pull-down/input)
19,GATGATTGTTCTCCCAGCTGATGAATTGTTGTCGTCGAGTAAACAAATTTTCCTAATCTTTCTGTTCAAGCGCCATCTAC,2.33 RPM ratio (pull-down/input)
20,GATGATTGTTCTCCCAGCTGATGAATTTGGGTCGTCGAGTAAACAAATTTTCCTAATCTTTCTGTTCAAGCGCCATCTAC,0.832 RPM ratio (pull-down/input)
21,GATGATTGTTCTCCCAGCTGATGAATTGTCGCACTCGAGTAAACAAATTTTCCTAATCTTTCTGTTCAAGCGCCATCTAC,1.07 RPM ratio (pull-down/input)

row,Sequence,binding signal
1,GATGATTGTTCTCCCAGCTGATGAATTGAGTTTCTCGAGTAAACAAATTTTCCTAATCTTTCTGTTCAAGCGCCATCTAC,0.825 RPM ratio (pull-down/input)
2,GATGATTGTTCTCCCAGCTGATGAATTCCGAGGCTCGAGTAAACAAATTTTCCTAATCTTTCTGTTCAAGCGCCATCTAC,0.853 RPM ratio (pull-down/input)
3,GATGATTGTTCTCCCAGCTGATGAATTCATAGTTTCGAGTAAACAAATTTTCCTAATCTTTCTGTTCAAGCGCCATCTAC,0.933 RPM ratio (pull-down/input)
4,GATGATTGTTCTCCCAGCTGATGAATTCTTGATCTCGAGTAAACAAATTTTCCTAATCTTTCTGTTCAAGCGCCATCTAC,0.781 RPM ratio (pull-down/input)
5,GATGATTGTTCTCCCAGCTGATGAATTCTTTGGCTCGAGTAAACAAATTTTCCTAATCTTTCTGTTCAAGCGCCATCTAC,0.81 RPM ratio (pull-down/input)
6,GATGATTGTTCTCCCAGCTGATGAATTTGTCCCTTCGAGTAAACAAATTTTCCTAATCTTTCTGTTCAAGCGCCATCTAC,1.01 RPM ratio (pull-down/input)
7,GATGATTGTTCTCCCAGCTGATGAATTGGGCGGATCGAGTAAACAAATTTTCCTAATCTTTCTGTTCAAGCGCCATCTAC,0.846 RPM ratio (pull-down/input)
8,GATGATTGTTCTCCCAGCTGATGAATTGAAACATTCGAGTAAACAAATTTTCCTAATCTTTCTGTTCAAGCGCCATCTAC,1.08 RPM ratio (pull-down/input)
9,GATGATTGTTCTCCCAGCTGATGAATTGTCAGTGTCGAGTAAACAAATTTTCCTAATCTTTCTGTTCAAGCGCCATCTAC,0.969 RPM ratio (pull-down/input)
10,GATGATTGTTCTCCCAGCTGATGAATTCTTTATCTCGAGTAAACAAATTTTCCTAATCTTTCTGTTCAAGCGCCATCTAC,0.879 RPM ratio (pull-down/input)
11,GATGATTGTTCTCCCAGCTGATGAATTCTGGCATTCGAGTAAACAAATTTTCCTAATCTTTCTGTTCAAGCGCCATCTAC,1.03 RPM ratio (pull-down/input)
12,GATGATTGTTCTCCCAGCTGATGAATTCCATTATTCGAGTAAACAAATTTTCCTAATCTTTCTGTTCAAGCGCCATCTAC,0.887 RPM ratio (pull-down/input)
13,GATGATTGTTCTCCCAGCTGATGAATTATGCGCTTCGAGTAAACAAATTTTCCTAATCTTTCTGTTCAAGCGCCATCTAC,0.977 RPM ratio (pull-down/input)
14,GATGATTGTTCTCCCAGCTGATGAATTGCGTCCCTCGAGTAAACAAATTTTCCTAATCTTTCTGTTCAAGCGCCATCTAC,0.999 RPM ratio (pull-down/input)
15,GATGATTGTTCTCCCAGCTGATGAATTGCACTCTTCGAGTAAACAAATTTTCCTAATCTTTCTGTTCAAGCGCCATCTAC,1.3 RPM ratio (pull-down/input)
16,GATGATTGTTCTCCCAGCTGATGAATTCCAGTCTTCGAGTAAACAAATTTTCCTAATCTTTCTGTTCAAGCGCCATCTAC,0.756 RPM ratio (pull-down/input)
17,GATGATTGTTCTCCCAGCTGATGAATTTTGTGGCTCGAGTAAACAAATTTTCCTAATCTTTCTGTTCAAGCGCCATCTAC,0.981 RPM ratio (pull-down/input)
18,GATGATTGTTCTCCCAGCTGATGAATTACCGAACTCGAGTAAACAAATTTTCCTAATCTTTCTGTTCAAGCGCCATCTAC,0.921 RPM ratio (pull-down/input)
19,GATGATTGTTCTCCCAGCTGATGAATTAAGATCGTCGAGTAAACAAATTTTCCTAATCTTTCTGTTCAAGCGCCATCTAC,0.881 RPM ratio (pull-down/input)
20,GATGATTGTTCTCCCAGCTGATGAATTCTACGTGTCGAGTAAACAAATTTTCCTAATCTTTCTGTTCAAGCGCCATCTAC,0.836 RPM ratio (pull-down/input)
21,GATGATTGTTCTCCCAGCTGATGAATTCTCGGTATCGAGTAAACAAATTTTCCTAATCTTTCTGTTCAAGCGCCATCTAC,0.843 RPM ratio (pull-down/input)
